{
  "source": "PubChem BioAssay AID504332",
  "about": "(National Center for Advancing Translational Sciences (NCATS), 2011)",
  "note": "About 31,000 (8.9%) of roughly 350,000 compounds were called active. This list was built around the results that the source calls inconclusive (neither active nor inactive); the mix of calls is not that of the screen. Calls follow the shape of the dose curve; as a rule, active = well fitted inhibition curve with a large enough effect; inconclusive = small, poorly fitted or top-dose-only effect; inactive = no such curve, though single readings can be large or run the other way. Potencies of inconclusive entries are doubtful fits and often do not repeat. % is scaled to controls: 0 for no effect and ±100 for the full control effect; potency is read from the fitted curve at half-maximal effect; tags tell the direction and shape of the fitted curve.",
  "data": [
    {"molecular_target": "Histone-lysine N-methyltransferase EHMT2 (Homo sapiens) (UniProt Q96KQ7)", "sequence (Q96KQ7 whole entry, looked up)": "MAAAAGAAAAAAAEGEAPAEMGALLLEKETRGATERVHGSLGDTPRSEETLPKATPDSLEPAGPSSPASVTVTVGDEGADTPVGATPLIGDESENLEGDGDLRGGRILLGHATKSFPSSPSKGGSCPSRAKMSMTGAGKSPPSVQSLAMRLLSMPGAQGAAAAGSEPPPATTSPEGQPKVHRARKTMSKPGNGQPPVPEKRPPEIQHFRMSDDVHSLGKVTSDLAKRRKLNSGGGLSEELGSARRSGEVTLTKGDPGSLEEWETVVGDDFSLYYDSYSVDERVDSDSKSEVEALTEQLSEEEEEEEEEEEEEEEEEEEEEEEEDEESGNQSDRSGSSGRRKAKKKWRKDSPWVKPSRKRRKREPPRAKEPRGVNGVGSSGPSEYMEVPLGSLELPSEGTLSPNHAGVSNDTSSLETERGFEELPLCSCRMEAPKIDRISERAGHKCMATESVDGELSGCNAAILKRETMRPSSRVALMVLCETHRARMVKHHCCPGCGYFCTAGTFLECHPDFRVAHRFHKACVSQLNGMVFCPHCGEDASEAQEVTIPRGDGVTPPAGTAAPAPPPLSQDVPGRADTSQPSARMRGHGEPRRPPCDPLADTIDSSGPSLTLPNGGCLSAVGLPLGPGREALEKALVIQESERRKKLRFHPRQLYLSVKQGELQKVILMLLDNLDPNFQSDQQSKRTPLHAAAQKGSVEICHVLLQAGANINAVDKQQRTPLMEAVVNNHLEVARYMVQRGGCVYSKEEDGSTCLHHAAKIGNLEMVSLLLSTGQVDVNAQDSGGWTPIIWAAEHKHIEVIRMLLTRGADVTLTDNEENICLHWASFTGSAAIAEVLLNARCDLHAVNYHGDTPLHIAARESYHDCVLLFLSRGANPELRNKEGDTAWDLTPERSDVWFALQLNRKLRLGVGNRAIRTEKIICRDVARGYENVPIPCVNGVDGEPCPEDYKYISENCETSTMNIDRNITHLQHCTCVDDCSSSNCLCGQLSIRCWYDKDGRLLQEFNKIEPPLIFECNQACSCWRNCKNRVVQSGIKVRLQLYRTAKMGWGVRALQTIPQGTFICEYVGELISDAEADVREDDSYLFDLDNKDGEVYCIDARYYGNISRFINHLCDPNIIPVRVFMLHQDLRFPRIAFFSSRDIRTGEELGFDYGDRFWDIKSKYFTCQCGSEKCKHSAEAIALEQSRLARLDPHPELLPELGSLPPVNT", "experiment": "qHTS Assay for Inhibitors of Histone Lysine Methyltransferase G9a; also: nearly all actives have a fitted effect of over 75% in size", "conditions": "G9a H3K9 monomethylation, AlphaScreen, 2 h; activity, negative = inhibition: at 59 µM (top of the series) unless noted", "outline": "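G9a (20 nM) preincubated 15 min RT with compounds, then 500 nM biotinylated H3K9 peptide and 20 uM SAM added; 2 h RT reaction. Monomethyl-H3K9 product detected by AlphaScreen with anti-H3K9me1 antibody, streptavidin donor and anti-rabbit IgG acceptor beads.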", "values": [
      {"smiles": "O=S(=O)(Nc1ccccc1)c1cccc2nonc12", "Potency": "inconclusive: 44.7 µM [inhibitor, partial curve]"},
      {"smiles": "CC(Oc1cccc(Cl)c1)C(=O)N(C)CC(=O)Nc1ccc(N2CCOCC2)cc1", "note": "(stereo not drawn)", "Potency": "active: 39.8 µM"},
      {"smiles": "Cc1ccc(OCCN2CCN(C(=O)CCC(=O)Nc3nnc(C(C)C)s3)CC2)cc1", "Potency": "inconclusive: 89.1 µM [inhibitor, single point]"},
      {"smiles": "Fc1ccc(COc2ccccc2C(=S)N2CCCC2)cc1", "Potency": "active: 1.78 µM"},
      {"smiles": "COc1ccc(Cc2nnc(NCCO)[nH]c2=O)cc1", "activity, negative = inhibition": "inactive: -5.24%"},
      {"smiles": "CCNc1nc(NCC)nc(N/N=C/c2ccc(O)c(OC)c2)n1", "Potency": "inconclusive: 28.2 µM [inhibitor, single point]"},
      {"smiles": "Cn1c(NC(=O)CCC2CCCCC2)cc(=O)n(C)c1=O", "Potency": "inconclusive: 89.1 µM [inhibitor, single point]"},
      {"smiles": "CN(CCc1ccccn1)C(=O)c1nn2c(C(F)(F)F)cc(-c3ccco3)nc2c1Cl", "Potency": "inconclusive: 39.8 µM [inhibitor, single point]"},
      {"smiles": "Cn1c(=O)n(C)c2cc(N3CCCC3)c(NC(=O)c3cccc(F)c3)cc21", "Potency": "active: 44.7 µM"},
      {"smiles": "Cc1ccc(S(=O)(=O)c2nc(-c3cccs3)oc2SCC(=O)Nc2cc(C)cc(C)c2)cc1", "Potency": "inconclusive: 11.2 µM [inhibitor, partial curve]"},
      {"smiles": "CC(C)[C@H](N)c1nnc2n1N=C(c1ccc(Cl)cc1)CS2", "Potency": "inconclusive: 89.1 µM [inhibitor, single point]"},
      {"smiles": "CCNC(=S)N(Cc1ccc(OC)cc1)C1CC(=O)N(c2ccc(OCC)cc2)C1=O", "note": "(stereo not drawn)", "Potency": "inconclusive: 89.1 µM [inhibitor, single point]"},
      {"smiles": "Cc1cc(=O)oc2c1c(C)nn2-c1ccc(Br)cc1", "Potency": "inconclusive: 0.631 µM [inhibitor, partial curve, poor fit]"},
      {"smiles": "CCN1CCN(c2ncc3c(n2)CCN(CC(C)C)C3)CC1", "Potency": "inconclusive: 35.5 µM [inhibitor, single point]"},
      {"smiles": "Nc1nc(CN2CCN(Cc3ccccc3)CC2)nc(Nc2ccc3c(c2)OCCO3)n1", "activity, negative = inhibition": "inactive: -13% [at 12.7 µM]"},
      {"smiles": "COC(=O)[C@@H]1C[C@@H]2CC[C@@H](O)C[C@@H]2N1Cc1ccc(N2CCN(C)CC2)cc1", "activity, negative = inhibition": "inactive: -0.101% [at 12.7 µM]"},
      {"smiles": "Cc1cc(OC(=O)c2ccccc2Br)cc(=O)n1C", "activity, negative = inhibition": "inactive: 36.9% [at 12.7 µM]"},
      {"smiles": "CCC1(c2ccccc2)NC(=O)N(CC(=O)NNC(=O)c2ccc(F)cc2)C1=O", "note": "(stereo not drawn)", "Potency": "active: 6.31 µM"},
      {"smiles": "CC(=O)Nc1ccc(-c2nc(C)c(C(C)=O)n2O)cc1", "Potency": "inconclusive: 11.2 µM [inhibitor, partial curve, poor fit]"},
      {"smiles": "O=[N+]([O-])c1cccc(N/N=C/c2cccc(O)c2O)c1", "Potency": "active: 22.4 µM"},
      {"smiles": "COc1cc(OC)c(NS(=O)(=O)c2c(C(=O)N3CCCCCC3)c(C)n(C)c2C)cc1Cl", "activity, negative = inhibition": "inactive: 9.83%"},
      {"smiles": "CCOC(=O)N1CCc2c(sc(NCc3cccc(F)c3)c2C(=O)Nc2ccc(OC)cc2)C1", "Potency": "inconclusive: 1.58 µM [inhibitor, full curve, poor fit]"},
      {"smiles": "COc1ccc2[nH]c(C(=O)Nc3ncc(C)cc3Br)cc2c1", "Potency": "inconclusive: 44.7 µM [inhibitor, partial curve]"},
      {"smiles": "Cc1ccc(CNc2nc3ccc(Cl)cc3n3nnnc23)cc1", "activity, negative = inhibition": "inactive: -0.616%"},
      {"smiles": "COc1ccc(-n2cc(-c3ccccc3)nc2SCC(=O)Nc2ccccc2C)cc1", "Potency": "inconclusive: 11.2 µM [inhibitor, partial curve]"},
      {"smiles": "Cc1ccc(N(C)C(=O)c2ccc3c(Cl)c4c(nc3c2)CCC4)cc1C", "Potency": "inconclusive: 89.1 µM [inhibitor, single point]"},
      {"smiles": "Cc1c(C)n(CC(O)CN2C(=O)c3ccccc3S2(=O)=O)c2ccccc12", "note": "(stereo not drawn)", "Potency": "inconclusive: 25.1 µM [inhibitor, single point]"},
      {"smiles": "CC1=N/C(=C\\c2ccc([N+](=O)[O-])cc2)C(=O)N1c1ccc(F)cc1F", "Potency": "inconclusive: 79.4 µM [inhibitor, partial curve, poor fit]"},
      {"smiles": "Cc1ccc(C(=O)NCC(=O)OCC(=O)Nc2ncc(C(F)(F)F)cc2Cl)cc1", "Potency": "inconclusive: 89.1 µM [inhibitor, single point]"},
      {"smiles": "CCOc1ccc(-n2ccnc2SCC(=O)Nc2cccc3ccccc23)cc1", "Potency": "inconclusive: 7.08 µM [inhibitor, full curve]"},
      {"smiles": "O=C1CCc2cc(NS(=O)(=O)c3ccc([N+](=O)[O-])cc3)cc3c2N1CCC3", "Potency": "active: 35.5 µM"},
      {"smiles": "COC(=O)/C(=N/Nc1cccc(C)c1)N1CCCc2ccccc21", "Potency": "inconclusive: 17.8 µM [inhibitor, single point]"},
      {"smiles": "O=[N+]([O-])c1cc(-c2nc(-c3ccccc3)no2)ccc1NCc1cccnc1", "activity, negative = inhibition": "inactive: -25.9%"},
      {"smiles": "CCOC(=O)c1sc(N2C(=O)C(O)=C(C(=O)c3ccc(C)o3)C2c2cccc([N+](=O)[O-])c2)nc1C", "note": "(stereo not drawn)", "Potency": "active: 44.7 µM"},
      {"smiles": "Cc1cccc(NC(=O)CCN2CCN(C/C=C/c3ccccc3)CC2)c1", "activity, negative = inhibition": "inactive: -27.3% [at 12.7 µM]"},
      {"smiles": "CCOc1cc(/C=N/Nc2ccc(C(=O)O)cc2)ccc1OC(=O)c1ccccc1C", "Potency": "active: 35.5 µM"},
      {"smiles": "O=c1cnc2ccccc2n1Cc1ccc(Br)cc1", "activity, negative = inhibition": "inactive: -4.05% [at 102 µM]"},
      {"smiles": "COc1ccc(-c2cc(=Nc3ccc(C)cc3)c3ccccc3o2)cc1", "Potency": "inconclusive: 22.4 µM [inhibitor, partial curve, poor fit]"},
      {"smiles": "COC(=O)c1sc2nc3c(cc2c1N)C(=O)CC(C)(C)C3", "Potency": "inconclusive: 39.8 µM [inhibitor, single point]"},
      {"smiles": "CN(C)CCCN(C(=O)c1ccc(S(=O)(=O)N2CCCCCC2)cc1)c1nc2c(F)cc(F)cc2s1", "Potency": "active: 44.7 µM"},
      {"smiles": "O=C(c1ccc(Cl)cc1)c1oc2ccccc2c1CS(=O)c1ccc(Cl)cc1", "note": "(stereo not drawn)", "activity, negative = inhibition": "inactive: -27.3%"},
      {"smiles": "Cc1ccc(N2CCN(C(=S)c3ccc(-c4cccc([N+](=O)[O-])c4)o3)CC2)cc1", "Potency": "active: 8.91 µM"},
      {"smiles": "COc1ccccc1N1CCN(C2CCN(S(=O)(=O)c3ccc(NC(C)=O)cc3)CC2)CC1", "activity, negative = inhibition": "inactive: -4.44% [at 102 µM]"},
      {"smiles": "CCOC(=O)NN1C(=O)c2ccccc2NC1C", "note": "(stereo not drawn)", "Potency": "inconclusive: 7.08 µM [inhibitor, single point]"},
      {"smiles": "N#Cc1c(/N=C/N2CCOCC2)sc2c1CCCCC2", "Potency": "inconclusive: 89.1 µM [inhibitor, single point]"},
      {"smiles": "CCOC(=O)Cc1csc(SCC(=O)Nc2nccs2)n1", "Potency": "active: 50.1 µM"},
      {"smiles": "COc1ccc(OC)c(NC(=O)Cn2c(=O)n(Cc3ccco3)c(=O)c3cc(OC)c(OC)cc32)c1", "activity, negative = inhibition": "inactive: -7.49%"},
      {"smiles": "CN(Cc1cc(=O)n2ccsc2n1)C1CCCCC1", "Potency": "active: 50.1 µM"},
      {"smiles": "O=C(O)CCN1CCc2ccccc21", "Potency": "inconclusive: 79.4 µM [inhibitor, single point]"},
      {"smiles": "CCCCN1C=CC(=C2N=c3cccc([N+](=O)[O-])c3=N2)C=C1", "Potency": "inconclusive: 25.1 µM [inhibitor, single point]"},
      {"smiles": "CCN1C(=O)/C(=C/c2c(C)nn(C)c2C)SC1=S", "activity, negative = inhibition": "inconclusive: -84% [inhibitor]"},
      {"smiles": "C=CCn1c(SCC(=O)c2[nH]c(C)c(C(C)=O)c2C)nnc1-c1ccncc1", "activity, negative = inhibition": "inactive: -28.6%"},
      {"smiles": "COc1ccc(N2CCN(C(=O)COc3ccccc3C#N)CC2)cc1", "Potency": "inconclusive: 25.1 µM [inhibitor, partial curve, poor fit]"},
      {"smiles": "Brc1ccc2ncnc(Nc3ccc(N4CCOCC4)cc3)c2c1", "activity, negative = inhibition": "inactive: -43.9% [at 12.7 µM]"},
      {"smiles": "COc1ccc(OCC(=O)Nc2c(C(=O)N3CCN(c4ccccc4)CC3)oc3ccccc23)cc1", "activity, negative = inhibition": "inactive: -32.3%"},
      {"smiles": "CC(=O)Nc1c2c(nn1-c1ccc(C)cc1)CS(=O)(=O)C2", "activity, negative = inhibition": "inconclusive: -51.5% [inhibitor] [at 0.501 µM]"},
      {"smiles": "Cc1cc(O)c(/C=N/Nc2ccc(F)cc2)c(=O)o1", "Potency": "active: 4.47 µM"},
      {"smiles": "c1ccc2nc(-c3ccc4c(c3)OCO4)ccc2c1", "activity, negative = inhibition": "inactive: 180% [at 102 µM]"},
      {"smiles": "O=C(N/N=C/c1cc(Br)cc([N+](=O)[O-])c1O)c1ccc(NC(=O)c2ccc(F)cc2)cc1", "Potency": "active: 35.5 µM"},
      {"smiles": "Cc1ccc(NC(=O)C2CCC(CNS(=O)(=O)c3ccc4c(c3)CCCC(=O)N4)CC2)cc1F", "note": "(stereo not drawn)", "activity, negative = inhibition": "inactive: 6.37%"},
      {"smiles": "CCCCNc1oc(-c2ccc(COc3ccccc3C)o2)nc1C#N", "Potency": "inconclusive: 7.94 µM [inhibitor, partial curve, poor fit]"},
      {"smiles": "CCOc1ccc2nc(Cl)c(/C=C/C(=O)c3ccco3)cc2c1", "Potency": "inconclusive: 63.1 µM [inhibitor, partial curve, poor fit]"},
      {"smiles": "COc1ccccc1N1CCN(Cc2nc(N)nc(Nc3ccc(C)cc3)n2)CC1", "activity, negative = inhibition": "inconclusive: -53.5% [inhibitor]"},
      {"smiles": "CC(C)NC(=S)NN=C1CCCCCCCCCCC1", "Potency": "inconclusive: 35.5 µM [inhibitor, partial curve]"},
      {"smiles": "COc1ccc(S(=O)(=O)NCCc2sc3nc(-c4ccc(C)cc4)nn3c2C)cc1C", "activity, negative = inhibition": "inactive: 7.03%"},
      {"smiles": "Cc1cc(NC(=O)CS(=O)(=O)c2ccc(F)cc2)no1", "Potency": "inconclusive: 3.16 µM [inhibitor, partial curve, poor fit]"},
      {"smiles": "CC(=O)c1cccc(NC(=O)Cc2ccc(NC(=O)N3CCCCc4ccccc43)cc2)c1", "activity, negative = inhibition": "inactive: 7.71%"},
      {"smiles": "Cc1cccc(C(C)(C)C)c1OCCN1CCCC1", "Potency": "active: 25.1 µM"},
      {"smiles": "O=C(NCc1ccc(F)cc1)c1cc2cccc3c2n1CCS3", "activity, negative = inhibition": "inactive: -1.22%"},
      {"smiles": "O=C(O)c1cccc(NC(=O)c2cc3cc(Br)cc(Br)c3oc2=O)c1", "activity, negative = inhibition": "inactive: -49.9%"},
      {"smiles": "CCOC(=O)c1c(NC(=O)COC(=O)c2cc(OC)c(OC)cc2[N+](=O)[O-])sc(C)c1CC", "activity, negative = inhibition": "inactive: -27.5%"},
      {"smiles": "O=C(O)c1ccc(Nc2nc(-c3ccccc3)cs2)cc1", "Potency": "inconclusive: 56.2 µM [inhibitor, partial curve, poor fit]"},
      {"smiles": "Cc1ccc(C(=O)NCCc2n[nH]c(=S)n2C)cc1", "Potency": "inconclusive: 39.8 µM [inhibitor, single point]"}
    ]}
  ]
}
